Target: recombinant SARS-CoV-2 Main protease (Mpro) (Severe acute respiratory syndrome coronavirus 2, UniProt P0DTD1)
Test: Cov Mpro Biochemical IC50 Assay
Conditions: 7.5 nM Mpro, fluorogenic peptide substrate 40 μM, 20 min pre-incubation; read-out: MPro IC50

First: Cn1c(=O)n(-c2cncc3ccccc23)c(=O)c2cc(-c3ccccc3Cl)oc21 [Example 33]
Second: N#CCn1c(=O)n(-c2cncc3ccccc23)c(=O)c2oc(-c3ccccc3Cl)cc21 [Example 40]
The IC50 of the first is 6.5-fold higher: 43 nM for the first, 6.6 nM for the second. The second is the more potent here.

First: Cn1c(=O)n(-c2cncc3c2CCCC3)c(=O)c2oc(-c3ccccc3Cl)cc21 [Example 34]
Second: N#CCn1c(=O)n(-c2cncc3c2CCCC3)c(=O)c2oc(-c3ccccc3Cl)cc21 [Example 42]
The IC50 of the first is 46-fold higher: 350 nM for the first, 7.66 nM for the second.

Going from `Cc1cncc(-n2c(=O)c3oc(-c4ccccc4Cl)cc3n(C)c2=O)c1` [Example 35] to `Cc1cncc(-n2c(=O)c3oc(-c4ccccc4Cl)cc3n(CC#N)c2=O)c1` [Example 45], the IC50 falls from 310 nM to 4.71 nM (66-fold). The second is the more potent here.

Going from `Cn1c(=O)n(-c2cncc3ccccc23)c(=O)c2oc(-c3ccc(F)cc3Cl)cc21` [Example 36] to `N#CCn1c(=O)n(-c2cncc3ccccc23)c(=O)c2oc(-c3ccc(F)cc3Cl)cc21` [Example 46], the IC50 falls from 1180 nM to 7.42 nM (160-fold).

Going from `COc1cc(-c2cc3c(o2)c(=O)n(-c2cncc4ccccc24)c(=O)n3CC#N)c(Cl)cc1F` [Example 37, 2-(6-(2-chloro-4-fluoro-5-methoxyphenyl)-3-(isoquinolin-4-yl)-2,4-dioxo-3,4-dihydrofuro[3,2-d]pyrimidin-1(2H)-yl)acetonitrile] to `COc1cc(-c2cc3c(o2)c(=O)n(-c2cncc4ccccc24)c(=O)n3CC2(C#N)CC2)c(Cl)cc1F` [Example 47, 1-((6-(2-chloro-4-fluoro-5-methoxyphenyl)-3-(isoquinolin-4-yl)-2,4-dioxo-3,4-dihydrofuro[3,2-d]pyrimidin-1(2H)-yl)methyl)cyclopropane-1-carbonitrile], the IC50 rises from 5.63 nM to 27.8 nM (4.9-fold).

Going from `Cn1ncc2cncc(-n3c(=O)c4oc(-c5ccccc5Cl)cc4n(CC#N)c3=O)c21` [Example 38] to `Cn1ncc2cncc(-n3c(=O)c4oc(-c5ccccc5Cl)cc4n(CC4(C#N)CC4)c3=O)c21` [Example 48], the IC50 rises from 5.22 nM to 8.69 nM (1.7-fold).

`COc1cc(-c2cc3c(o2)c(=O)n(-c2cncc4cnn(C)c24)c(=O)n3CC#N)c(Cl)cc1F` [Example 39] and `COc1cc(-c2cc3c(o2)c(=O)n(-c2cncc4cnn(C)c24)c(=O)n3CC2(C#N)CC2)c(Cl)cc1F` [Example 49] are within 1.5-fold of each other in IC50: 6.3 nM for the first, 8.87 nM for the second.

`COc1ccc2cncc(-n3c(=O)c4oc(-c5ccccc5Cl)cc4n(CC#N)c3=O)c2c1` [Example 41] and `N#CCn1c(=O)n(-c2cncc3ccc(F)cc23)c(=O)c2oc(-c3ccccc3Cl)cc21` [Example 43] are within 1.5-fold of each other in IC50: 5.94 nM for the first, 6.98 nM for the second.

`N#CC1(Cn2c(=O)n(-c3cncc4ccccc34)c(=O)c3oc(-c4ccccc4Cl)cc32)CC1` [Example 50] and `N#CC1(Cn2c(=O)n(-c3cncc4ccc(F)cc34)c(=O)c3oc(-c4ccccc4Cl)cc32)CC1` [Example 52] are within 1.5-fold of each other in IC50: 6.82 nM for the first, 7.67 nM for the second.

`COc1ccc2cncc(-n3c(=O)c4oc(-c5ccccc5Cl)cc4n(CC4(C#N)CC4)c3=O)c2c1` [Example 51] and `N#CC1(Cn2c(=O)n(-c3cncc4ccccc34)c(=O)c3oc(-c4ccc(F)cc4Cl)cc32)CC1` [Example 54] are within 1.5-fold of each other in IC50: 11.3 nM for the first, 13.8 nM for the second.

`Cc1cncc(-n2c(=O)c3oc(-c4ccccc4Cl)cc3n(CC3(C#N)CC3)c2=O)c1` [Example 53] and `COc1cc(-c2cc3c(o2)c(=O)n(-c2cncc(C)c2)c(=O)n3CCC#N)c(Cl)cc1F` [Example 58] are within 1.5-fold of each other in IC50: 5.98 nM for the first, 5.48 nM for the second.

Going from `COc1cc(-c2cc3[nH]c(=O)n(-c4cncc5cccnc45)c(=O)c3o2)c(Cl)cc1F` [Example 55, 6-(2-chloro-4-fluoro-5-methoxyphenyl)-3-(1,6-naphthyridin-8-yl)furo[3,2-d]pyrimidine-2,4(1H,3H)-dione] to `COc1cc(-c2cc3c(o2)c(=O)n(-c2cncc4cccnc24)c(=O)n3CCC#N)c(Cl)cc1F` [Example 57, 3-(6-(2-chloro-4-fluoro-5-methoxyphenyl)-3-(1,6-naphthyridin-8-yl)-2,4-dioxo-3,4-dihydrofuro[3,2-d]pyrimidin-1(2H)-yl)propanenitrile], the IC50 falls from 49 nM to 9.25 nM (5.3-fold).

`COc1cc(-c2cc3[nH]c(=O)n(-c4cncc(C)c4)c(=O)c3o2)c(Cl)cc1F` [Example 56] showed an IC50 of 27.8 nM.

From patent US20250296936A1, “SARS-COV2 MAIN PROTEASE INHIBITORS” (Gilead Sciences, Inc., priority 2024, published 2025)
